# Assay results published in PMC12040169 (PLOS Biology, 2025).
# Some of the results follow.
# System: T1, C. trachomatis L2/434/Bu expressing GFP (CTL2-GFP)
# T1 construct: L2/434/Bu GFP intracellular growth in HeLa cells
# Design: species or system HeLa; C. trachomatis total inclusion area by high-content imaging, normalised to DMSO
# Settings: total inclusion area; 28.5 h, 10 µM; inhibitor
# Procedure, shortened: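 Imaging read-out: GFP inclusions and Hoechst nuclei captured by high-content imaging after fixation. Inclusion area/number = chlamydial growth; nuclei count = host cell viability. MIC calculated per earlier method.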
row,SMILES,% of control remaining
1,CCN(C(=O)c1cnc2scc(C)n2c1=O)c1ccccc1 [CBK287452],87.6799
2,CC(=O)CSc1nnc(COc2ccc(C3CCCCC3)cc2)n1-c1ccccc1 [CBK265026],89.0881
3,O=C(Nc1ccc2ncccc2c1)c1ccc(Cl)cc1Cl [CBK159793],98.8533
4,COc1cncc(-c2cc(N3CCC(N4CCCCC4)CC3)ncn2)c1 [CBK090964],118.012
5,O=C(O)C1CCC(N2C(=O)C3C4CCC(C4)C3C2=O)CC1 (stereo not drawn) [CBK287183],98.154
6,Cc1nn(C)c(Cl)c1S(=O)(=O)Nc1cc(NC2CCNC2)c2occc2c1 (stereo not drawn) [CBK067807C],80.2724
7,CCC(CO)Nc1cncc(-c2cc(OC)c(OC)c(OC)c2)n1 (stereo not drawn) [CBK037882],106.105
8,Cc1nc(C2(O)CCCN(C3CCCCC3)CC2)sc1COc1ccc(F)c(F)c1 (stereo not drawn) [CBK286499],64.8541
9,CC(C)c1nccn1CC(=O)NCCOc1ccc(F)cc1 [CBK281597],88.8573
10,Cc1oc(-c2ccccc2)nc1C(=O)O [CBK047490],81.0462
11,Cc1ccc(C)c2[nH]c(=O)c(CN(CCN3CCOCC3)Cc3nnnn3C3CCCCC3)cc12 [CBK108116],79.1747
12,COc1ccccc1NC(=O)/C(=C\c1cccnc1)NC(=O)c1ccccc1 [CBK261649],100.62
13,Cc1ccc(S(=O)(=O)Nc2nccnc2-c2ccc(Cc3nnn[nH]3)cc2)cc1 [CBK073841],92.7541
14,COCOc1ccc(-c2ncc(OC)nc2NC(=O)COC)cc1 [CBK145216],101.291
15,CC(=O)N1C[C@@H](c2ccsc2)[C@@H]2CN(CC3CCCCC3)CC[C@@H]21 [CBK284587],120.218
16,CN1CCN(C(=O)c2cc(-c3ccc(C(=O)N4CCOCC4)cc3)cnc2N)CC1 [CBK158584],84.2068
17,O=C(N/N=C/c1ccc([N+](=O)[O-])cc1)C(=O)Nc1cccc(Cl)c1 [CBK261821],88.757
18,CC1(C)CC(NC(=O)c2cc([N+](=O)[O-])ccc2Cl)CC(C)(C)N1 [CBK263948],95.6897
19,O=C(O)CCC(=O)Nc1cccc(C(=O)Nc2cccc(Cl)c2)c1 [CBK296977],94.3109
20,Fc1cc(F)cc(-c2nnc(Cc3nc(-c4ccncc4)no3)o2)c1 [CBK288602],91.1146
21,Cc1ccc(Nc2nc(N)nc(CN3CCN(Cc4ccc5c(c4)OCO5)CC3)n2)cc1 [CBK268985],106.363

row,SMILES,% of control remaining
1,O=C(NCCN1CCOCC1)C1CCN(C(=O)c2cccc(F)c2)CC1 [CBK304627],36.2168
2,CC[n+]1c(C(C)(C)C)csc1NCC1CC1 [CBK011154B],64.2529
3,CCN(CC)CCNC(=O)c1c(O)c2ccccc2n(Cc2ccccc2)c1=O [CBK291199],70.2783
4,O=C(CN1C(=O)c2ccccc2C1=O)OCC(=O)N1c2ccccc2Sc2ccccc21 [CBK264701],104.599
5,COC(=O)c1ccccc1NC(=O)COc1ccc(Cl)c2cccnc12 [CBK266037],150.297
6,Cc1ccc(N2C(=O)c3ccccc3C2Nc2ccccc2)nc1 (stereo not drawn) [CBK113238],86.4458
7,CN(C)CCNc1nc(-c2cccc3ncccc23)cnc1N [CBK063693],140.019
8,FC(F)c1cc(-c2ccccc2)n2ncnc2n1 [CBK025714],77.3205
9,CCCn1ccnc1SCC(=O)Nc1ccc(CN2CCOCC2)cc1 [CBK306068],48.1241
10,OCc1cc(N2CCOC3(CCCOC3)C2)ncc1F (stereo not drawn) [CBK304774],58.6927
11,Cc1ccc(S(=O)(=O)n2c(SCc3ccccc3)nc3ccccc32)cc1 [CBK293933],85.8068
12,COc1ccc(S(=O)(=O)N(C)CC(=O)Nc2ccc(C(N)=O)cc2)cc1Cl [CBK267891],102.709
13,Cn1cc(-c2nccnc2OCCc2cccs2)cn1 [CBK107066],97.285
14,Cn1c(Cc2csc(NC(=O)CNC(=O)Cc3ccccc3)n2)n[nH]c1=S [CBK296765],86.1948
15,CC(C)(CC(=O)O)CC(=O)Nc1ccc(Cl)c(Cl)c1 [CBK086500],44.6238
16,O=c1oc2c(CN3CCN(CCO)CC3)c(O)ccc2cc1-c1nc(-c2ccc(Br)cc2)cs1 [CBK264949],45.3528
17,CC(=O)NC1CCN(CC2(c3ccc(F)cc3)CCCC2)CC1 [CBK283327],102.494
18,Cc1ccc2oc(-c3cc(NC(=O)c4nc[nH]n4)ccc3O)nc2c1 [CBK266900],77.0778
19,CC(=O)Nc1ccc(-c2cccc(COC3CCN(C(=O)c4ccc(OC(C)C)cc4)CC3)c2)cc1 [CBK149485],5.634
20,Cc1ccc(S(=O)(=O)NCC(C)O)cc1-c1nnc2c3ccccc3c(C)nn12 (stereo not drawn) [CBK266614],139.081
21,CC(C)CC(C(=O)Nc1nnc(C(C)C)s1)N1C(=O)c2ccccc2C1=O (stereo not drawn) [CBK091610],51.0472

row,SMILES,% of control remaining
1,COc1ccc2[nH]c(SCC(=O)O)nc2c1 [CBK091620],72.5146
2,O=C(NCCCN1CCOCC1)c1nn2c(C(F)(F)F)cc(-c3cccs3)nc2c1Cl [CBK262553],95.532
3,OCc1nc2cc3cn[nH]c3cc2[nH]1 [CBK016203],106.727
4,CC(C)[C@@H](CO)Nc1cncc(-c2cccc3ccccc23)n1 [CBK065566],20.1836
5,CCOC(=O)c1cccc(-c2ccsc2)n1 [CBK149244],84.839
6,O=C(NCCNc1ccc([N+](=O)[O-])cc1Cl)c1ccccc1Cl [CBK263541],87.1028
7,Cn1cc(C(=O)NCC(c2ccc(F)cc2)N2CCCC2)ccc1=O (stereo not drawn) [CBK282843],112.995
8,CC(C)c1ccc(S(=O)(=O)N2CC3CC2CO3)cc1 (stereo not drawn) [CBK050999],62.1049
9,O=C(O)C(c1c[nH]c2ccccc12)N1CCN(Cc2ccncc2)CC1 (stereo not drawn) [CBK286624],97.7419
10,Cc1ccc(-c2cc3ccccn3c2C(=O)CSc2nncn2C)cc1 [CBK269580],87.609
11,COCCCNC(=O)c1cccs1 [CBK009164],91.6469
12,CC1CCN(Cc2ccc(-c3nnn(CC(=O)NCc4ccc(C(F)(F)F)nc4)n3)cc2)CC1 [CBK149721T],70.2149
13,CCN(CC)c1ccc(C(=O)Cn2c(=O)n(C(=O)CCCc3ccc(OC)cc3)c3ccccc32)cc1 [CBK106503],114.141
14,OCCN(Cc1cccnc1)Cc1cccn1-c1ccccc1Cl [CBK282936],108.266
15,CC1CCCCC1NC(=O)Cn1ncc2cccn2c1=O (stereo not drawn) [CBK283673],72.7047
16,O=C(Cn1c(C(F)(F)F)nc2ccccc21)NCCN1CCOCC1 [CBK267339],123.631
17,COCCNC(=O)c1ccc(-c2ccccc2)nc1N(C)C [CBK106049],95.8594
18,Cc1ccccc1NS(=O)(=O)c1cc(CN2C[C@@H](C)NC[C@@H]2C)c2occc2c1 [CBK103579T],93.5544
19,CCO[C@H]1COC[C@@H]1NC(=O)c1cccc2c1NCCC2 [CBK307113],40.7593
20,CCc1cc(C(=O)NC(c2ccc(F)cc2)c2nccn2C)n(C)n1 (stereo not drawn) [CBK281434],92.9347
21,CCNCCOc1c(C)cc(C)cc1C [CBK270137C],69.722

row,SMILES,% of control remaining
1,Cc1ccc(-c2nnc(CNC(=O)c3ccccc3-c3ccccc3)o2)s1 [CBK286298],100.524
2,O=C(Nc1cccc([N+](=O)[O-])c1)c1cc(S(=O)(=O)N2CCCCC2)ccc1Cl [CBK261367],104.432
3,COc1ccc(OCC(=O)NNC(=O)c2cnccn2)cc1 [CBK262619],97.9556
4,COCCC(=O)N1C[C@@H](c2cccc(F)c2)[C@@]2(CCCC(=O)N2)C1 [CBK283450],109.966
5,Brc1ccc(NCc2ccccn2)cc1 [CBK026347],63.8289
6,Cn1c(=O)n(C)c2cc(S(=O)(=O)NCC3(O)CCCNCC3)ccc21 (stereo not drawn) [CBK306777],81.2082
7,COc1ccc(Nc2nnc(-c3ccc(C(N)=O)cc3)c3ccccc23)cc1 [CBK264246],96.5462
8,CCOC(=O)C1CSCCN1C(=O)c1ccc(-n2nc(C)cc2C)cc1 (stereo not drawn) [CBK304517],57.1032
9,C=CCNC(=O)Cn1c(-c2ccco2)cc2cccnc21 [CBK282719],120.965
10,COc1ccc(-c2csc(NC(=O)c3ccccc3-c3ccccc3C(=O)O)n2)cc1 [CBK296076],89.7785
11,CCOc1ccc(OC(=O)c2ccc3c(c2)OCO3)cc1 [CBK149205],88.4726
12,N#Cc1sc2nc(C34CC5CC(CC(C5)C3)C4)ccc2c1N [CBK267455],112.056
13,Cc1cc(NC(=O)c2ccccc2)nc2c1c(=O)oc1ccccc12 [CBK291126],94.3359
14,O=C(NC1CCN(CC2(c3ccccc3)CC2)CC1)c1cc[nH]n1 [CBK285351],76.3962
15,O=C1NCCCC12CCN(Cc1cnc(N3CCOCC3)nc1)CC2 [CBK285528],80.5577
16,O=C1CC(Cc2ccccc2)C(=O)N1CCCn1ccnc1 (stereo not drawn) [CBK265123G],109.506
17,O=C(CN1CCCC2(CCN(C(=O)Cc3c[nH]c4ccccc34)C2)C1)c1ccsc1 (stereo not drawn) [CBK132053],105.369
18,Cc1cc2nn(-c3ccccc3)nc2cc1NC(=O)c1ccc(-c2cccc([N+](=O)[O-])c2)o1 [CBK263859],113.798
